Results: article PMC5700166
Only a part is listed here, and it is no random draw. The list includes weakly bound sequences.

Tests used:
Test in all cases: protein-binding microarray (PBM)
Settings in all cases: PBM: ~300 nM protein, 6 mM HEPES pH 7.8, 80 mM KCl, 0.5 mM EDTA, 0.5 mM EGTA, 6% glycerol, 35 ng/ul poly-dIdC, 1% milk, 1 h, room temperature; Ap Aiptasia and Nv Nematostella (sea anemones) / Co Capsaspora / Aq Amphimedon (sponge) / Dm Drosophila / Hu human; RHD is the Rel homology domain; high values mean tight binding; most listed sequences are background and not binding sites; double strand, one strand shown
[1] = target: T1, GST-Ap-NF-kB RHD (UniProt A0A913YAJ5)
T1 sequence: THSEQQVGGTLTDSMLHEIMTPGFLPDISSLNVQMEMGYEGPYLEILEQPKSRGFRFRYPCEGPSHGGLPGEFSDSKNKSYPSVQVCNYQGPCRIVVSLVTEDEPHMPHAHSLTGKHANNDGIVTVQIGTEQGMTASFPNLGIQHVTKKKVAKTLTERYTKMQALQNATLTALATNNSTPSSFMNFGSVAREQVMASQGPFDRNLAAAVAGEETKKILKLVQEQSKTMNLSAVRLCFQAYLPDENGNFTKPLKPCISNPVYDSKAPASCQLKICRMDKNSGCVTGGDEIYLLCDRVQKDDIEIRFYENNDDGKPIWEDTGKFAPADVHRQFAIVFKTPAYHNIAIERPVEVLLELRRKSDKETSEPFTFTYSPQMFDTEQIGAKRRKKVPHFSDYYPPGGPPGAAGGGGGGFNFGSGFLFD

[2] = target: T2, GST-Nv-NF-kB (Cys allele) (UniProt E5G601)
T2 sequence: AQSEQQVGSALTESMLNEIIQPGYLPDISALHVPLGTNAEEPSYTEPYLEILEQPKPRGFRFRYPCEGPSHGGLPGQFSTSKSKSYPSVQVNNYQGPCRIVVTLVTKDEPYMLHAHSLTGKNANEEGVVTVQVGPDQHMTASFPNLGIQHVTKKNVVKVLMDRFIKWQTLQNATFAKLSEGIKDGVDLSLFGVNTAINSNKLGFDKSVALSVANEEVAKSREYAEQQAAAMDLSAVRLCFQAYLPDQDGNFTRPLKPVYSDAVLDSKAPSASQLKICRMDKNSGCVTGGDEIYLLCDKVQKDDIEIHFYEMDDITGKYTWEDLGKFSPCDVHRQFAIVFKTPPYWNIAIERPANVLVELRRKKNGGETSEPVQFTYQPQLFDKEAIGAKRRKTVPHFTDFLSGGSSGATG

[3] = target: T3, GST-Co-NF-kB (UniProt F1ARL5)
T3 sequence: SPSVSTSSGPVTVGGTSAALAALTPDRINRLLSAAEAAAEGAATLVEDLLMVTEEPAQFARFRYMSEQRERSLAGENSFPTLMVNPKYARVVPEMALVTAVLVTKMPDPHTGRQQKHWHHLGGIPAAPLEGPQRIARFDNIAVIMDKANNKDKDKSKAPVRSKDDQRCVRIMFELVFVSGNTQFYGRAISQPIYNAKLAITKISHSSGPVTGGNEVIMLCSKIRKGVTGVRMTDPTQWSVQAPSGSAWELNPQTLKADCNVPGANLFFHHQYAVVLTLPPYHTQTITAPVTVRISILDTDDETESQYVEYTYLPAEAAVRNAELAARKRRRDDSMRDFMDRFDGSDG

[4] = target: T4, GST-Dm-Relish (UniProt Q94527)
T4 sequence: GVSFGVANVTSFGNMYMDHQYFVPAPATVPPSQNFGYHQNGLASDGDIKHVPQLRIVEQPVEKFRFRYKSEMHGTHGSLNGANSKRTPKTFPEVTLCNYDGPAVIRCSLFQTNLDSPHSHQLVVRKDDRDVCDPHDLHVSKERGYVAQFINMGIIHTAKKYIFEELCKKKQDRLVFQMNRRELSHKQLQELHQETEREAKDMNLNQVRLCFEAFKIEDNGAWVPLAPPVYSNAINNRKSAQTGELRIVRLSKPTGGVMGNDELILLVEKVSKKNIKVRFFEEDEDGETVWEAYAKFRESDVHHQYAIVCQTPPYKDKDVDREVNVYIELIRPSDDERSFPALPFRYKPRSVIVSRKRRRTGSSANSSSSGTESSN

[5] = target: T5, GST-Aq-NF-kB (UniProt A9Y5G7)
T5 sequence: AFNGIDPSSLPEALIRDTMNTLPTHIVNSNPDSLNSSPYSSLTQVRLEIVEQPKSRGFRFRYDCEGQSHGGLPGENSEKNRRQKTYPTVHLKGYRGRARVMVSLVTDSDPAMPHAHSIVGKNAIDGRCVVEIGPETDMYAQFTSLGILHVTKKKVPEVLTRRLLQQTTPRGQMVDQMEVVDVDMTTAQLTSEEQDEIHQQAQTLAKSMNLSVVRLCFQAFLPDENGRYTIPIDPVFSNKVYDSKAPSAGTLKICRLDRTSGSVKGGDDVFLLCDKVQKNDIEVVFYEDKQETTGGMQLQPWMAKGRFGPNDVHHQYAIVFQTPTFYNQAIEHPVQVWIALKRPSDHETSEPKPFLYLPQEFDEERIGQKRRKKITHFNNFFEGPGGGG

| Sequence | binding signal [1] [z-score] | binding signal [2] [z-score] | binding signal [3] [z-score] | binding signal [4] [z-score] | binding signal [5] [z-score] |
| --- | --- | --- | --- | --- | --- |
| CCGATTAACATCAATTATTCAGCTGATGTTAATCGGGTCTTGATTCGCTTGACGCTGCTG | -0.175 | -0.23 | -0.562 | -0.654 | -0.323 |
| CCGATTAACATCATTAGGTCCAGTGATGTTAATCGGGTCTTGATTCGCTTGACGCTGCTG | -0.183 | -0.388 | 0.187 | -0.313 | -0.287 |
| CCGATTAACATCAAGAGTTTTCCTGATGTTAATCGGGTCTTGATTCGCTTGACGCTGCTG | -0.00557 | -0.171 | -0.218 | 0.843 | 0.301 |
| CCGATTAACATCAGTCATGCAGGTGATGTTAATCGGGTCTTGATTCGCTTGACGCTGCTG | -0.0472 | -0.0493 | -0.0231 | 0.259 | 0.143 |
| CCGATTAACATCAAGAGATTTCCTGATGTTAATCGGGTCTTGATTCGCTTGACGCTGCTG | -0.18 | -0.134 | 0.233 | -0.535 | 0.247 |
| CCGATTAACATCACGCACGGACATGATGTTAATCGGGTCTTGATTCGCTTGACGCTGCTG | 0.0642 | -0.523 | -1.07 | -0.252 | -0.34 |
| CCGATTAACATCAAGGCAAAGGCTGATGTTAATCGGGTCTTGATTCGCTTGACGCTGCTG | -0.594 | -0.265 | -0.514 | -0.924 | -0.745 |
| CCGATTAACATCAAGCGAAAGAATGATGTTAATCGGGTCTTGATTCGCTTGACGCTGCTG | -0.112 | 0.526 | -0.607 | -0.123 | -0.123 |
| CCGATTAACATCAAACTCAGCGTTGATGTTAATCGGGTCTTGATTCGCTTGACGCTGCTG | -0.692 | -0.534 | 0.914 | -0.819 | -0.538 |
| CCGATTAACATCAAAGCCACGAGTGATGTTAATCGGGTCTTGATTCGCTTGACGCTGCTG | -0.21 | -0.735 | -0.469 | -0.28 | -0.527 |
| CCGATTAACATCACGTGTGTAGGTGATGTTAATCGGGTCTTGATTCGCTTGACGCTGCTG | 0.571 | 0.71 | 0.467 | 0.985 | 0.356 |
| CCGATTAACATCAGGACTCAGTATGATGTTAATCGGGTCTTGATTCGCTTGACGCTGCTG | -0.518 | -1.26 | -0.496 | -0.76 | -0.405 |
| CCGATTAACATCACTCTCATAAGTGATGTTAATCGGGTCTTGATTCGCTTGACGCTGCTG | -0.659 | -0.0545 | -0.711 | -0.476 | -0.533 |
| CCGATTAACATCATCGTGACCCATGATGTTAATCGGGTCTTGATTCGCTTGACGCTGCTG | -0.156 | 0.164 | -0.0798 | -0.388 | -0.2 |
| CCGATTAACATCATAAATGACATTGATGTTAATCGGGTCTTGATTCGCTTGACGCTGCTG | -0.978 | -0.0537 | -1 | -0.0568 | -0.39 |
| CCGATTAACATCAAAATCCCCCTTGATGTTAATCGGGTCTTGATTCGCTTGACGCTGCTG | 10.1 | 10.7 | 6.3 | 10.2 | 8.68 |
| CCGATTAACATCATAGTTATTTATGATGTTAATCGGGTCTTGATTCGCTTGACGCTGCTG | -0.594 | -0.255 | 0.0174 | -0.078 | -0.327 |
| CCGATTAACATCACTATAGGCCGTGATGTTAATCGGGTCTTGATTCGCTTGACGCTGCTG | -0.649 | 0.207 | -0.129 | 0.134 | -0.413 |
| CCGATTAACATCAATTTTGTGACTGATGTTAATCGGGTCTTGATTCGCTTGACGCTGCTG | -1.49 | -0.462 | -0.494 | -0.392 | -0.473 |
| CCGATTAACATCAAATCATGATCTGATGTTAATCGGGTCTTGATTCGCTTGACGCTGCTG | -0.586 | -0.831 | -2.33 | -1.31 | -0.604 |
| CCGATTAACATCAACACGGTGAGTGATGTTAATCGGGTCTTGATTCGCTTGACGCTGCTG | -0.369 | -0.181 | -0.496 | -0.151 | -0.447 |
| CCGATTAACATCAGGAGATTCACTGATGTTAATCGGGTCTTGATTCGCTTGACGCTGCTG | -0.00922 | -0.255 | -1.15 | 0.631 | 0.0741 |
| CCGATTAACATCAGGAGAACGTGTGATGTTAATCGGGTCTTGATTCGCTTGACGCTGCTG | 0.294 | 0.235 | 0.709 | 0.593 | -0.292 |
| CCGATTAACATCACTACTTGCTCTGATGTTAATCGGGTCTTGATTCGCTTGACGCTGCTG | -0.633 | -0.583 | -0.0166 | -0.682 | -0.373 |
| CCGATTAACATCAGGTAATATATTGATGTTAATCGGGTCTTGATTCGCTTGACGCTGCTG | 0.612 | 0.3 | 0.572 | 0.0031 | 0.537 |
| CCGATTAACATCAACTGGCCGTCTGATGTTAATCGGGTCTTGATTCGCTTGACGCTGCTG | 0.0612 | -0.797 | -1.21 | -0.897 | -0.416 |
| CCGATTAACATCAAAACGTACAGTGATGTTAATCGGGTCTTGATTCGCTTGACGCTGCTG | 0.094 | -0.231 | 0.137 | 0.698 | -0.246 |
